# Results from a compilation of properties of binary mixtures (doi:10.1016/j.seppur.2020.117103).
# The densities may have been worked out from excess volumes.
# Assay: xn = mol fraction of the nth substance listed
# Details: 298.15 K, 100 kPa
structure (smiles),measurement,setting,value
CO + CC[n+]1ccn(C)c1.N#C[S-],mass density,x1 = 1,786.8 kg/m3
CC[n+]1ccn(C)c1.N#C[S-] + CO,mass density,x2 = 0,1115.1 kg/m3
same,mass density,x2 = 0.2018,1098.5 kg/m3
same,mass density,x2 = 0.3185,1086.2 kg/m3
same,mass density,x2 = 0.4076,1073.5 kg/m3
same,mass density,x2 = 0.5037,1057 kg/m3
same,mass density,x2 = 0.5936,1037.4 kg/m3
same,mass density,x2 = 0.6923,1009.1 kg/m3
same,mass density,x2 = 0.805,962.6 kg/m3
same,mass density,x2 = 0.9014,899.3 kg/m3
CCO + CC[n+]1ccn(C)c1.N#C[S-],mass density,x1 = 1,784.6 kg/m3
CC[n+]1ccn(C)c1.N#C[S-] + CCO,mass density,x2 = 0,1115.1 kg/m3
same,mass density,x2 = 0.2134,1088.9 kg/m3
same,mass density,x2 = 0.345,1067.7 kg/m3
same,mass density,x2 = 0.3836,1060.5 kg/m3
same,mass density,x2 = 0.6181,1003.1 kg/m3
same,mass density,x2 = 0.6948,975.7 kg/m3
same,mass density,x2 = 0.8944,873.3 kg/m3
